About 800 (1.6%) of roughly 50,000 compounds showed an effect of 50% or more. Some of the results follow.
molecular target: Bcl-2-like protein 10 (Homo sapiens) (UniProt Q9HD36); test: Phenotype converters, Bcl-B/TR3 peptide binding displacement, primary biochemical FP (AID 1240); details: GST-Bcl-B / FITC-TR3 peptide fluorescence polarization; stronger effect = higher value; compound at 3.75 mg/L;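 note: 0% = Bcl-B with tracer peptide and DMSO and 100% = tracer peptide lacking Bcl-B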
Chain of UniProt Q9HD36 (Q9HD36 whole entry, looked up): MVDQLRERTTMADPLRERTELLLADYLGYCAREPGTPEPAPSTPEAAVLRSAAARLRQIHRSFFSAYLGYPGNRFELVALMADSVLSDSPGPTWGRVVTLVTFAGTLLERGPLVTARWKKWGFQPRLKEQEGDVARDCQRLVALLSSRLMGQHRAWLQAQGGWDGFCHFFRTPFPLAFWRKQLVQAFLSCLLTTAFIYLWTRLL

Compared with O=C1NC(=O)N(c2ccccc2)C(=O)/C1=C\c1ccc(-c2ccc([N+](=O)[O-])cc2)o1, COc1ccc([N+](=O)[O-])cc1-c1ccc(/C=C2\C(=O)NC(=O)N(c3ccc(Cl)cc3)C2=O)o1 is lower in displacement: 130% for the first, 25.1% for the second.

Compared with N#CCC(=O)NNC(=O)COc1cccc2ccccc12, COc1ccccc1CNC(=O)COc1ccc2ccccc2c1 is higher in displacement: -20% for the first, 29.5% for the second.

Compared with Cc1cc(/C=C2\C(=O)NC(=S)N(c3cccc(Br)c3)C2=O)c(C)n1C, COc1c(Br)cc(Cl)cc1/C=C1\C(=O)NC(=S)N(c2ccc(C)cc2)C1=O is lower in displacement: 14.5% for the first, -9.7% for the second.

Compared with COc1cc(NC(=O)c2ccccc2)c(Cl)cc1NC(=O)c1ccc(Cl)c(Cl)c1, COC(=O)c1cc(C(=O)Nc2ccccc2OC)cc([N+](=O)[O-])c1 is higher in displacement: 10% for the first, 12.9% for the second.

Compared with O=[N+]([O-])c1ccc(Cl)cc1NCCNS(=O)(=O)c1ccc2ccccc2c1, COc1ccc(CCC(=O)Nc2cc(Cl)ccc2Cl)cc1 is lower in displacement: 13.8% for the first, -4.5% for the second.

Compared with CCCc1cc(=O)n2[nH]c(-c3ccc(C)cc3)cc2n1, Cc1cccc(-c2cc(NC(=O)c3ccc(Br)cc3)n[nH]2)c1 is lower in displacement: 9.9% for the first, 9.4% for the second.

First: CCC(NC(C)=O)c1ccc(Br)cc1 (centres undefined)
Second: Cc1ccc(/C=C/C(=O)Nc2cccc(Br)c2)o1
The displacement of the first is lower: 6.6% for the first, 10.9% for the second.

Compared with Cc1ccccc1NC(=O)/C(=C/c1ccc(Br)cc1)NC(=O)c1ccccc1, O=C(Nc1ccc(F)cc1)/C(=C\c1ccc(Br)cc1)NC(=O)c1ccccc1F is lower in displacement: -7.5% for the first, -10.9% for the second.

First: O=C(Nc1ccc(OC(F)(F)F)cc1)c1ccc(Br)o1
Second: COc1ccc(NC(=O)C(=O)NCc2ccccc2Cl)cc1
The displacement of the first is higher: 33.6% for the first, 10.1% for the second.

First: CCC(=O)Nc1ccc2c(c1)C(=O)N(C)C2=O
Second: O=C(Cc1n[nH]c(=O)[nH]c1=O)N/N=C\c1ccccc1F
The displacement of the first is higher: 13.6% for the first, -2.3% for the second.

Compared with COc1ccccc1OCCOc1ccc(Cl)cc1/C=C1/SC(=S)N(C)C1=O, COc1ccccc1/C=C1\SC(=S)N(NC(=O)c2cccnc2)C1=O is lower in displacement: 2.3% for the first, 1.5% for the second.

First: CCOc1cc(C=C2C(=O)NC(=O)NC2=O)ccc1OCCOc1ccc(C(C)(C)C)cc1
Second: COc1cc(/C=C2/C(=O)NC(=O)N(c3ccc(C(C)C)cc3)C2=O)cc(Br)c1O
The displacement of the first is higher: 10% for the first, -25.3% for the second.

Going from O=C(/C=C/c1ccc2c(c1)OCO2)N1CCC(CN2C(=O)c3cccc4cccc(c34)C2=O)CC1 to Cc1ccccc1N1C(=O)c2cccc3c(N4CCCCC4)ccc(c23)C1=O, the displacement rises from 12.4% to 15.9%.

Compared with O=C1NC(=O)N(c2cccc(Br)c2)C(=O)/C1=C/c1cccs1, O=C1/C(=C\c2cccs2)SC(=S)N1c1cccc(Br)c1 is higher in displacement: 3.8% for the first, 20.8% for the second.

Going from C/C(NN1CCN(C)CC1)=C(\C#N)C(=O)NCc1ccccc1 to CN1CCN(Cn2c(O)c(N=NC(=O)c3cccnc3)c3ccccc32)CC1, the displacement falls from -10.8% to -11.9%.

Going from Cc1ccccc1NC(=O)CC1SC(N)=NC1=O (centres undefined) to Cc1ccccc1NC(=S)NC(=O)c1ccc(Cl)cc1, the displacement rises from -14.5% to -6.9%.

Compared with COc1ccc(CNCc2cccc(Oc3ccccc3)c2)cc1, COc1ccc(CNc2ccc3c(c2)ncn3-c2ccc(OC)cc2)cc1 is higher in displacement: -23.6% for the first, -1.1% for the second.

Going from O=C1/C(=C\c2ccc(O)cc2)SC(=S)N1c1cccc(C(F)(F)F)c1 to O=C1/C(=C/c2ccc([N+](=O)[O-])cc2)SC(=S)N1c1ccc(F)cc1, the displacement rises from -0.2% to 5.2%.

Compared with COc1ccc(/C=N/NC(=O)C2CC(=O)N(c3ccc(Cl)cc3)C2)cc1 (centres undefined), Cc1ccc(N2CC(C(=O)Nc3ccccn3)CC2=O)cc1 (centres undefined) is higher in displacement: -1% for the first, 11.4% for the second.

Compared with Cc1oc2c(CN3CCN(C)CC3)c(O)ccc2c(=O)c1-c1nc2ccccc2s1, COc1ccccc1N1C(=O)c2cccc3c(N4CCN(C)CC4)ccc(c23)C1=O is higher in displacement: 11.7% for the first, 157% for the second.

First: COc1ccc(-c2cc(C(F)(F)F)n3nc(C(=O)Nc4cc(C)ccc4O)cc3n2)cc1OC
Second: COc1cc(-c2csc(/C(C#N)=C/Nc3cccc(F)c3)n2)ccc1O
The displacement of the first is higher: 2.3% for the first, 0.6% for the second.

Going from CCCOc1cccc(C(=O)Nc2cccc(-c3nc4ccccc4s3)c2C)c1 to CCOc1cccc(C(=O)Nc2nc(-c3ccc(F)cc3F)cs2)c1, the displacement falls from 5.7% to -8.7%.

Compared with Cc1cc(C)nc(Nc2nc3ccccc3c(=O)[nH]2)n1, Cc1ccccc1OCCSc1nc2ccccc2c(=O)[nH]1 is higher in displacement: -0.2% for the first, 1.8% for the second.

First: C(=N\Nc1nc(Nc2ccccc2)nc(N2CCOCC2)n1)/c1ccc2ccccc2c1
Second: O=C(COc1ccc2ccccc2c1)N1CCN(c2ccccc2)CC1
The displacement of the first is higher: 13.9% for the first, -10.1% for the second.

Going from Cc1cc(C)c[n+](C(C)C(=O)c2ccc(Cl)cc2)c1 (centres undefined) to CCOC(=O)c1ccccc1NC(=O)c1ccc(Cl)cc1Cl, the displacement falls from 3.9% to -10.4%.

Compared with CCOc1cc(C(=O)NCCc2ccccc2)cc(OCC)c1OCC, CC(=O)NCCc1c(C)n(Cc2ccccc2)c2ccccc12 is higher in displacement: -7.2% for the first, 20.2% for the second.

First: CC1CN(C(=O)c2ccccc2C(=O)c2ncc[nH]2)CC(C)O1 (centres undefined)
Second: CC1CCN(C(=O)c2ccc(Cl)cc2Cl)CC1
The displacement of the first is lower: -0.9% for the first, 18.6% for the second.

Compared with Cc1ccsc1/C=C1/SC(N2CCCC2)=NC1=O, Cc1ccc(/C=C2\SC(N3CCC(C)CC3)=NC2=O)o1 is higher in displacement: 1.4% for the first, 6.7% for the second.

Compared with CC(=O)c1sc(NC(=O)c2ccoc2C)nc1C, CCCC(=O)Nc1sc(C)c(C)c1C(=O)Nc1ccccc1OC is lower in displacement: 6% for the first, -5.6% for the second.

First: Cc1ccc(NC2=CC(c3ccccc3[N+](=O)[O-])N(c3ccc(C)cc3)C2=O)cc1 (centres undefined)
Second: Cc1ccc(-n2[nH]c(C)c(/C=N/NC(=O)c3ccccc3[N+](=O)[O-])c2=O)cc1C
The displacement of the first is higher: 3.8% for the first, 1.1% for the second.

Compared with N/C(=N\OC(=O)c1ccccc1F)c1cccc([N+](=O)[O-])c1, O=C(COc1ccccc1[N+](=O)[O-])Nc1cccnc1 is higher in displacement: -3.2% for the first, 3.9% for the second.

Going from CCN1C(=O)/C(=C/c2cc3c(cc2Br)OCO3)SC1=S to Cc1no[n+]([O-])c1COc1ccccc1/C=C1\NC(=S)NC1=O, the displacement falls from 1.7% to -3.9%.

Compared with CC(C)c1ccc(/C=C(\NC(=O)c2ccccc2)C(=O)NCCCN(C)C)cc1, COc1ccc(NC(=O)CN(c2ccc(C(C)C)cc2)S(=O)(=O)c2ccccc2)cc1 is lower in displacement: 10.5% for the first, -1.3% for the second.

Compared with Fc1cccc(Cl)c1/C=N/Nc1nc2ccccc2s1, Oc1cccc(/C=N/Nc2nc3ccccc3s2)c1 is lower in displacement: -5.5% for the first, -17% for the second.

First: O=C(NCCOc1ccccc1Cl)c1cc(F)c(F)cc1Cl
Second: O=C(NCCOCc1ccccc1)c1ccccc1Br
The displacement of the first is lower: -18.9% for the first, -6.8% for the second.

First: Cc1ccc(OCC(=O)N2CCN(c3ccc([N+](=O)[O-])cc3Cl)CC2)cc1C
Second: Cc1nn(-c2ccc(Cl)c(Cl)c2)c(C)c1-c1cccc([N+](=O)[O-])c1
The displacement of the first is lower: 5.7% for the first, 13.1% for the second.

Compared with O=C1NC(=O)N(c2ccccc2)C(=O)/C1=C\c1ccccc1I, COc1ccc(N2C(=O)/C(=C/c3cc(Cl)cc(Cl)c3O)C(=O)NC2=S)cc1 is lower in displacement: -6.5% for the first, -8.9% for the second.

Compared with CCCOc1ccc(N2C(=O)CC(N3CCN(c4ccccc4)CC3)C2=O)cc1 (centres undefined), O=C(N/N=C/c1cccc2ccccc12)C(=O)N1CCCC1 is higher in displacement: 6.3% for the first, 11.3% for the second.

Compared with CCOC(=O)c1c(C)nc2c(c1-c1ccc(Cl)cc1Cl)C(=O)CC(C)(C)C2, COC(=O)C1=C(C)NC2=C(C(=O)CC(C)(C)C2)C1c1ccc(C)o1 (centres undefined) is higher in displacement: -4.4% for the first, -1.7% for the second.

Going from CC(C)(O)P(=O)(c1ccccc1)c1ccccc1 to CC(C)CNC(=O)c1cccc(NC(=O)C(c2ccccc2)c2ccccc2)c1, the displacement falls from 16.2% to -7.9%.

Going from CC1(C)Nc2ccccc2N(CCC(=O)N2CCOCC2)C1=O to N#C/C(=C/c1ccc(-c2ccc([N+](=O)[O-])cc2)o1)C(=O)N1CCOCC1, the displacement falls from 9% to 0.9%.

Going from Cc1c(C)c2ccc(OC(C)C)cc2oc1=O to COc1ccc(CCNC(=O)c2sc3cc(C)ccc3c2Cl)cc1, the displacement falls from 9.4% to -14.9%.

Going from COC(=O)c1cc(NC(=O)c2c(-c3ccccc3Cl)noc2C)cc(C(=O)OC)c1 to COc1ccc(OC)c2c1C(=O)c1ccccc1C2=O, the displacement rises from 10.5% to 101%.

Compared with O=C(CC1(O)C(=O)Nc2ccc(Br)cc21)c1ccco1 (centres undefined), Cc1cc(OCC(=O)Nc2cc(Cl)cc(Cl)c2)ccc1Br is higher in displacement: -27% for the first, 10.8% for the second.

Going from COc1ccc(C(=O)Nc2ccc(NC(=O)c3ccc(Br)cc3)cc2)cc1[N+](=O)[O-] to CCOc1cc(/C=N/NC(=O)c2ccccn2)ccc1OC(=O)c1ccc(F)cc1, the displacement rises from -5.7% to 3.8%.

First: Cc1cc(C)nc(SCC(=O)c2cccs2)n1
Second: Cc1cc(OCC(=O)Nc2c(C)ccc3nsnc23)cc(C)c1Cl
The displacement of the first is lower: 11.9% for the first, 32.2% for the second.

Compared with Nc1nonc1C(=O)OCc1ccc(Cl)cc1Cl, CCOC(=O)C(=CNc1ccc2c(c1)OCCO2)C(=O)OCC is higher in displacement: -8.1% for the first, -1.7% for the second.

Compared with Cc1cc(C(O)(C(F)(F)F)C(F)(F)F)cc(C)c1N, CCOC(=O)C(CCOCCOc1cc(C)c(Cl)c(C)c1)C(=O)OCC is higher in displacement: -2.1% for the first, 7.3% for the second.

Compared with CC(=O)c1ccc(NC2=NC(C)(C)Cc3ccccc32)cc1, O=C(Nc1ccc(F)c(F)c1)C1CC1c1ccccc1 (centres undefined) is higher in displacement: -3.5% for the first, -0.1% for the second.

First: COc1ccc(CN2CCN(Cc3cc(Br)ccc3OC)CC2)c(OC)c1
Second: COc1ccc(CN2CCN(CC3CC=CCC3)CC2)c(OC)c1OC (centres undefined)
The displacement of the first is lower: -7.5% for the first, -3.7% for the second.

Compared with CC(C)OC(=O)C1C(=O)CC(C)(O)C(C(=O)OC(C)C)C1c1ccc(C(C)C)cc1 (centres undefined), COc1ccccc1CNC(=O)C(=O)Nc1cccc(C(F)(F)F)c1 is lower in displacement: 4.4% for the first, 3.9% for the second.

Compared with CCOC(=O)c1c(NC(=O)c2ccc([N+](=O)[O-])cc2)sc(C(=O)N2CCCCCC2)c1C, CCOC(=O)C1=C(C)N=c2s/c(=C\c3ccc(OC)c(OC)c3OC)c(=O)n2C1c1ccccc1 (centres undefined) is higher in displacement: 1.5% for the first, 210% for the second.

First: CSc1ccc(S(=O)(=O)N(CC(=O)Nc2cc(C)cc(C)c2)c2ccc(C)cc2)cc1
Second: COc1ccc(/C=C/C(=O)/C=C/c2ccc(N(C)C)cc2)cc1
The displacement of the first is higher: 13.6% for the first, -3% for the second.

Going from COc1ccc(/C=C/C(=O)NCCSCc2ccccc2)cc1OC to O=C(CCCCC(=O)NN=Cc1ccncc1)NN=Cc1ccncc1, the displacement rises from -5.8% to 7.3%.

CCOC(=O)CC(=O)CSc1nccc(N(C)C)c1C#N was tested, and the displacement was 1.7%.

Reference: PubChem BioAssay AID1240 (Sanford-Burnham Center for Chemical Genomics, 2008)
